According to PubChem BioAssay AID588591 (National Center for Advancing Translational Sciences (NCATS), 2011):
Values joined by “and” are separate entries in the source; they are usually repeats but may differ in a detail not shown here. Equal values may be shown once. The campaign covered roughly 390,000 compounds. About 4,700 (1.2%) were called active. The shares of active, inactive and inconclusive entries below differ from those in the screen. Calls follow the shape of the dose curve; as a rule, active = well fitted inhibition curve with a large enough effect; inconclusive = small, poorly fitted or top-dose-only effect, or another doubt; inactive = no such curve, though single readings can be large or run the other way. Potencies beside an inconclusive call are fits to weak or partial responses and may not hold up. The source holds several records for some structures; these can differ, active in one and inactive in another.

Molecular target: DNA polymerase eta (Homo sapiens) (UniProt Q9Y253)
UniProt Q9Y253, sequence (Q9Y253 whole entry, looked up): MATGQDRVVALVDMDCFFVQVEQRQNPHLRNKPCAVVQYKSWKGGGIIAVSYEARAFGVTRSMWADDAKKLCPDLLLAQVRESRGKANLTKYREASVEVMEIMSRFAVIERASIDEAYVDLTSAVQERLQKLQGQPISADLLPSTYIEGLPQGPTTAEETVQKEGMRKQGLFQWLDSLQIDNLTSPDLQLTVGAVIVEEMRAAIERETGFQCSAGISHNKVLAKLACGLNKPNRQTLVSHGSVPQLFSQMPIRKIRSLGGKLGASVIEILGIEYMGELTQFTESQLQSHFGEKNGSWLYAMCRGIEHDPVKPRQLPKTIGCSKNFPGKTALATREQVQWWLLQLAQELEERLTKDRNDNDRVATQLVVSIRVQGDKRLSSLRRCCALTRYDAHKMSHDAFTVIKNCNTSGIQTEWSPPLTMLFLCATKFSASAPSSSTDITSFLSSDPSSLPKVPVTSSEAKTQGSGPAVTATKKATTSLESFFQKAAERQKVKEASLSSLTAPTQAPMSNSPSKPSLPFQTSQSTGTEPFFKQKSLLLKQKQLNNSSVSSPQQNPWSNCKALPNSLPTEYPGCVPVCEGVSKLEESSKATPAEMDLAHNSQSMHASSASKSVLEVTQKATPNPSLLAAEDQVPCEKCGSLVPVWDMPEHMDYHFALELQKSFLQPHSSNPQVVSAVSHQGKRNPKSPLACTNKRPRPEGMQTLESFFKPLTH
Assay: qHTS for Inhibitors of Polymerase Eta
Details: recombinant Pol eta, fluorescent DNA replication assay; series mostly up to 114 µM; activity change, negative = inhibition: at the top concentration
Summary of the method: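 Pol eta (10 nM) was preincubated with compounds for 15 min at room temperature, after which fluorescent replication substrate (50 nM final) was added to start the reaction. Fluorescence was read kinetically at 0 and 10 min.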
% is scaled to controls: 0 for no effect and ±100 for the full control effect; potency is read from the fitted curve at half-maximal effect; tags tell the direction and shape of the fitted curve.

SMILES | Potency | activity change, negative = inhibition
O=C(O)c1cc(N/N=C/c2ccc(-c3ccc(F)cc3)o2)ccc1Cl | inconclusive: 79.4 µM [inhibitor, partial curve] | 
O=C1CCCCc2sc(Br)c([N+](=O)[O-])c2N1 | inconclusive: 56.2 µM [inhibitor, partial curve, poor fit] | 
Cc1c(Cl)cnc(NC(=O)COC(=O)C2CCCC2)c1Cl | active: 35.5 µM | 
Cc1ccc(S(=O)(=O)N2[C@@H](c3ccccc3)C(C(=O)O)=CC[C@H]2c2ccc(Cl)c(Cl)c2)cc1 | inconclusive: 100 µM [inhibitor, partial curve, poor fit] | 
CC(=O)Nc1ccc2nc(NC(=O)c3ccc([N+](=O)[O-])o3)sc2c1 | inconclusive: 56.2 µM [inhibitor, partial curve, poor fit] | 
O=C1Nc2ccccc2/C1=N\c1sc2c(c1C(=O)Nc1ccccc1)CCCC2 | inconclusive: 28.2 µM [inhibitor, partial curve] | 
Cc1[nH]n(-c2ccc(F)cc2)c(=O)c1C=Nc1ccc(S(=O)(=O)N(C)C)cc1 |  | inactive: -0.968%
COc1cc(C(=O)C(=O)c2ccc(O)c(OC)c2)ccc1O | inconclusive: 39.8 µM [inhibitor, partial curve, poor fit] | 
CCOC(=O)CS(=O)(=O)c1nc(-c2ccccc2)cc(C(F)(F)F)n1 |  | inactive: -2.39%
Cc1ccccc1NC(=O)Cn1cc(S(=O)(=O)N2CCCC2)c(S(=O)(=O)N2CCCC2)c1 |  | inactive: -27.6%
CN(Cc1ccco1)S(=O)(=O)c1nnc(NC(=O)c2ccccc2)s1 | inactive and inconclusive: 56.2 µM [inhibitor, partial curve, poor fit] | 
O=C(Nc1ccc(F)cc1)c1ccc2c(c1)NC(=O)c1ccccc1S2 |  | inactive: -13.3%
CC(C)c1ccc(NS(=O)(=O)c2ccc3[nH]cc(C(=O)N4CCC(C(N)=O)CC4)c(=O)c3c2)cc1 | active: 17.8 µM | 
O=C1NN(c2ccccc2)C(=O)/C1=C/c1coc2ccccc2c1=O | inconclusive: 31.6 µM [inhibitor, full curve, poor fit] | 
CCOC(=O)c1ccc(NC(=O)CCC(=O)N2CCSc3ccccc32)cc1 |  | inactive: -20.4%
Cc1ccc(S(=O)(=O)CC(=O)N(CCCN(C)C)c2nc3ccc(C)cc3s2)cc1 | inconclusive: 31.6 µM [inhibitor, partial curve, poor fit] | 
O=C1NC2(Nc3ccccc31)C(=O)Nc1ccccc12 (configuration not stated) | inconclusive: 25.1 µM [inhibitor, partial curve, poor fit] | 
Cc1nc2c(-c3ccccc3)c(C)nn2c(C)c1CCC(=O)NCc1ccccc1 | inconclusive: 100 µM [inhibitor, partial curve, poor fit] | 
CCOc1cc(/C=C2\C(=O)ON=C2C)ccc1OCc1ccccc1 | inconclusive: 22.4 µM [inhibitor, full curve] | 
O=C(NC1CC1)C1=C[C@H](c2c[nH]c3ccccc23)C[C@H](OCCCCO)O1 |  | inactive: 4.68%
CCOC(=O)Cc1csc(NC(=O)c2sc3nc4c(C)cc(C)cc4cc3c2N)n1 | inconclusive: 89.1 µM [inhibitor, single point] | 
Cc1ccc2nc(N=C(N)N)nc(C)c2c1 |  | inactive: -6.16%
O=C(/C=C/c1ccco1)NC(=S)Nc1cc(-c2nc3ccccc3s2)ccc1Cl | active: 22.4 µM | 

SMILES | Potency | activity change, negative = inhibition
CO[C@@]1(NC(=O)CSCC#N)C(=O)N2C(C(=O)O)=C(CSc3nnnn3C)CS[C@@H]21 | active: 2.24 µM | 
O=C(Cn1ncc(Cl)c(Cl)c1=O)Nc1ccc2c(c1)OCO2 | inconclusive: 79.4 µM [inhibitor, single point] | 
O=C(Cn1ncc2c3ccccc3n(Cc3cccc(Cl)c3)c2c1=O)NCCC1=CCCCC1 | inconclusive: 89.1 µM [inhibitor, single point] | 
O=C(O)CN1C(=O)/C(=C\c2cc(Br)ccc2OCc2ccc(F)cc2)SC1=S | active: 39.8 µM | 
CC(=O)c1ccc(N2C(=O)Nc3ccccc3S2(=O)=O)cc1 |  | inactive: -9.34%
Cn1cnnc1SCC(=O)Nc1sc2c(c1C(N)=O)CCC2 | active: 22.4 µM | 
CC(C)(O)CCCC(C)(O)c1ccc(C(=O)O)cc1O (configuration not stated) | active: 10 µM | 
CC(C)C(=O)Nc1ccccc1N1CCN(S(C)(=O)=O)CC1 |  | inactive: 1.71%
COc1cc(/C=C/C(=O)O)cc(S(=O)(=O)N2CCCc3ccccc32)c1OC | inconclusive: 50.1 µM [inhibitor, partial curve, poor fit] | 
CN(CCCNC(=O)c1cc2c(=O)n(C)c3ccccc3c2s1)Cc1ccccc1 |  | inactive: 13.7%
Cc1ccc(NC(=O)Cc2ccccc2Cl)cc1S(=O)(=O)N(C)C | inconclusive: 28.2 µM [inhibitor, single point] | 
CCC(CC)c1nnc(NC(=O)Cc2cccs2)s1 | active: 79.4 µM | 
CS(=O)(=O)Nc1ccc(C(=O)Nc2ccccc2-c2ccccc2)cc1 |  | inactive: -5.96%
CCCCn1c(N)c(N(CC(C)C)C(=O)c2ccc(-c3ccc([N+](=O)[O-])cc3)o2)c(=O)[nH]c1=O | inconclusive: 35.5 µM [inhibitor, partial curve, poor fit] | 
Cc1c(CC(=O)N2CCN(C(=O)C3COc4ccccc4O3)CC2)c(=O)oc2c(O)c(O)ccc12 (configuration not stated) | active: 2 µM | 
Cn1c(=O)c2c(ncn2CC(=O)N2CCOCC2)n(C)c1=O | inconclusive: 28.2 µM [inhibitor, partial curve, poor fit] | 
Cc1cccc(/C=N/n2c(C)nc3ccccc3c2=O)c1 |  | inactive: -2.89%
Cc1ccc(/C=C/c2nc3sc(C(=O)O)c(C)c3c(=O)[nH]2)cc1[N+](=O)[O-] | active: 39.8 µM | 
COc1cc2ccc(=O)oc2c(O[C@@H]2O[C@H](CO)[C@@H](O)[C@H](O)[C@H]2O)c1O | inconclusive: 39.8 µM [inhibitor, partial curve, poor fit] | 
CCCN(C(=O)COC(=O)c1cc(CC)c(C)s1)c1c(N)n(Cc2ccccc2)c(=O)[nH]c1=O | active: 17.8 µM | 
COc1ccccc1N=Nc1nc(-c2ccccc2)c(-c2ccccc2)[nH]1 | inconclusive: 35.5 µM [inhibitor, partial curve, poor fit] | 
CCCCCN(C(=O)CCC(=O)OC(C)C(=O)Nc1ccccc1C)c1c(N)n(CCCC)c(=O)[nH]c1=O (configuration not stated) |  | inactive: -3.96%
CCOC(=O)C1CCCN(C(=O)c2ccc3c(c2)N(Cc2ccccc2F)C(=O)c2ccccc2S3=O)C1 (configuration not stated) | inconclusive: 79.4 µM [inhibitor, partial curve, poor fit] | 

SMILES | Potency | activity change, negative = inhibition
CC(=O)c1cccc(NC(=O)CCCSc2nc(-c3ccco3)cc(C(F)(F)F)n2)c1 | inconclusive: 39.8 µM [inhibitor, partial curve, poor fit] | 
NC(=O)c1ccsc1NC(=O)COC(=O)Cc1ccsc1 | inconclusive: 28.2 µM [inhibitor, single point] | 
O=c1cc2nc(-c3ccccc3)nc(SCCOc3ccc(Cl)cc3)n2[nH]1 |  | inactive: -10.2%
Cc1c(C(=O)Nc2nc(-c3ccccn3)cs2)oc2ccccc12 | inconclusive: 39.8 µM [inhibitor, partial curve] | 
CC(Sc1nnc(-c2ccncc2)n1-c1ccc(F)cc1)C(=O)NC1CC1 (configuration not stated) |  | inactive: -12.2%
Cc1ccccc1SCC(=O)OCC(=O)Nc1sccc1C(N)=O | inconclusive: 31.6 µM [inhibitor, partial curve, poor fit] | 
CCCCCCc1ccc(-c2ncc(N)cn2)cc1 | inconclusive: 100 µM [inhibitor, partial curve, poor fit] | 
Cc1noc(NS(=O)(=O)c2ccc(NC(=O)Nc3ccc(Cl)c(Cl)c3)cc2)c1C | active: 50.1 µM | 
COc1ccc(N2CCN(C(=O)Cn3c(-c4cccs4)cc4ccccc43)CC2)cc1 | inconclusive: 89.1 µM [inhibitor, partial curve, poor fit] | 
Cc1ccccc1NC(=O)C(Cc1ccccc1)N1Cc2ccccc2C1=O (configuration not stated) |  | inactive: 13.2%
COc1cc(-n2nc(C)c3c2OC(N)=C(C#N)C3c2ccccc2)c(Cl)c(Br)c1O (configuration not stated) | inconclusive: 28.2 µM [inhibitor, partial curve, poor fit] | 
COC/C=C/C1=CC2=CC(=O)C(C)(OC(=O)c3cnc4ccccc4n3)C(=O)C2=CN1C1CC1 (configuration not stated) | inconclusive: 15.8 µM [inhibitor, full curve, poor fit] | 
COC(=O)c1ccc(S(=O)(=O)NCc2cccc(OC)c2)n1C | inconclusive: 50.1 µM [inhibitor, partial curve, poor fit] | 
CCCNC(=O)Cn1nc(-c2ccc(C)c(C)c2)c2cnc3ccc(OC)cc3c21 |  | inactive: 0.739%
O=C(CSc1ccc(F)cc1)Nc1ccccc1N1CCOCC1 | inconclusive: 28.2 µM [inhibitor, partial curve, poor fit] | 
COc1cc(/C=C(\C#N)c2nc3ccccc3s2)cc([N+](=O)[O-])c1O | inconclusive: 15.8 µM [inhibitor, full curve] | 
O=C(NCc1ccccc1)c1nnc(CS(=O)(=O)c2ccccc2)o1 | inconclusive: 89.1 µM [inhibitor, single point] | 
CC(C)C(=O)NC(=S)/C=C1/N(C)c2ccccc2C1(C)C |  | inactive: -20.2%
CNC(=O)CC1C(=O)N(c2ccc(Cl)cc2)C(=S)N1CCc1ccc(OC)c(OC)c1 (configuration not stated) |  | inactive: -6.3%
CC(=O)c1cccc(N(C(=O)c2ccco2)C(C(=O)NC2CCCCC2)c2ccc(C)o2)c1 (configuration not stated) | inconclusive: 79.4 µM [inhibitor, partial curve, poor fit] | 
COc1cccc(-c2nc(SCc3cccc(Br)c3)n3[nH]c(=O)cc3n2)c1 | inconclusive: 89.1 µM [inhibitor, single point] | 
